Our source for the binding signal values is article PMC7819943, “Rice protein-binding microarrays: a tool to detect cis-acting elements near promoter regions in rice”.

Some of the results follow.

The assay has as its target T1, OsWOX13 (Oryza sativa, UniProt Q5QMM3 1-267).
T1 sequence: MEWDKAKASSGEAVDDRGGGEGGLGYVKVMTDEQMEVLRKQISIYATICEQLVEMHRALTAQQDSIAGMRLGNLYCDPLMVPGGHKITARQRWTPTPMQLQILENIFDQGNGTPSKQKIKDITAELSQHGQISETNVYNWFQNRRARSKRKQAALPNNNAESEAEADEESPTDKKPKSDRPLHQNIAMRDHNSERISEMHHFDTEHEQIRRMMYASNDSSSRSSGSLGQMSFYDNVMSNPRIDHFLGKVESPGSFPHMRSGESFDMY
Kind of assay: protein-binding microarray (RPBM); PBS, 2% BSA, 51.3 ng/ul salmon testes DNA, 50 uM zinc acetate, 200 nM TF, 25 C, 1 h; high values mean tight binding. As to conditions: protein: recombinant; tags: N-terminal polyhistidine and DsRed monomer fusion (pET32a); label: CyDye5-dUTP incorporated in the synthesized complementary strand; 3' TTTTT single-stranded linker to array surface; dsDNA, one strand shown. The method in brief:
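Polyhistidine-tagged DsRed fusions of transcription factors, joined at the N-terminus, were expressed in E. coli BL21-CodonPlus and isolated on Ni–NTA. They were incubated at 200 nM for 1 h at 25 °C on a custom Agilent array, double-stranded and BSA-blocked, in PBS with 2% BSA, salmon testes DNA and 50 µM zinc acetate. The binding signal is per-feature fluorescence intensity (arbitrary units) read on an Axon 4000B scanner after washing.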
Take “GTTAATTACAACATTTCTTTGAGATCAGCTCAAATGGGTCCGGAGTCACCTAGTGCAG”: the binding signal is 28100 fluorescence intensity (a.u.).

For “GACACCCATCCATCCGCCTCCTGCCTGCGCCGTCGGCCGACGGAGTCACCTAGTGCAG”, the binding signal was 4140 fluorescence intensity (a.u.).

Turning to “CATGGACTAGACTGTGATTAGAAGCTAGAACCGAAATAACCGGAGTCACCTAGTGCAG”, the binding signal is 7470 fluorescence intensity (a.u.).

With “ATTATTTAATTTGTTGGATTGTGGCTTCCTTTCCTCTAAACGGAGTCACCTAGTGCAG”, the binding signal was 19100 fluorescence intensity (a.u.).

“CTGATCATCAATTTGGTTACTCTGCAGCTCACCGGCATTCCGGAGTCACCTAGTGCAG”: the binding signal was 8200 fluorescence intensity (a.u.).

On to “TAAATAATTTCCCCATACTCCTCTCACTTGCTGTGCGGCCCGGAGTCACCTAGTGCAG”, for which the binding signal is 3680 fluorescence intensity (a.u.).

“CATAATTATATGGGACAGTAAGGAACAATCCGTTGTTACTCGGAGTCACCTAGTGCAG”: the binding signal was 19800 fluorescence intensity (a.u.).

Turning to “GATTAATTAGATTTAATAAATTCATCTCGCAGTTTACAGGCGGAGTCACCTAGTGCAG”, the binding signal was 62200 fluorescence intensity (a.u.).

Consider “TGGTCAATAGTTAATTATTCCGATGATCAAATATTACTAGCGGAGTCACCTAGTGCAG”, for which the binding signal is 6140 fluorescence intensity (a.u.).

“CGTAAATTATAGGGCGAGAAGATCATTGACATGCAAATTCCGGAGTCACCTAGTGCAG”: the binding signal is 11700 fluorescence intensity (a.u.).

Regarding “TAAGCAATTAATTGAATGTGGTTGAAAAGTTTGGCTCTTCCGGAGTCACCTAGTGCAG”, the binding signal was 39500 fluorescence intensity (a.u.).

For the sequence “CATAATTATTTTCATCTGGAATTTTGTAGCAATAAACTGACGGAGTCACCTAGTGCAG”, the binding signal was 18700 fluorescence intensity (a.u.).

Take “TTTGATCAAAATCAAAACGTCTTATAACCTGAAACGGAGGCGGAGTCACCTAGTGCAG”: the binding signal was 4210 fluorescence intensity (a.u.).

Regarding “GTTAATAAGTAATGATCATGATTGATGGCGTAGATAGCTACGGAGTCACCTAGTGCAG”, the binding signal was 42900 fluorescence intensity (a.u.).

Take “ATACTACCTTCAATTATATTAATAGATAATGCCGTTGTCACGGAGTCACCTAGTGCAG”: the binding signal was 11700 fluorescence intensity (a.u.).

Consider “CCAATCACATTCACTTTTACAGTTTAGCCCCACCCTCTCCCGGAGTCACCTAGTGCAG”, for which the binding signal was 4980 fluorescence intensity (a.u.).

As to “TGTGATTGTGTGAGAACTATCTATTTGATCTTACATTGTTCGGAGTCACCTAGTGCAG”, the binding signal was 21800 fluorescence intensity (a.u.).

Consider “TTTATTATTTTATCGGATCTAATTACCACGTAAGCGTCACCGGAGTCACCTAGTGCAG”, for which the binding signal is 3940 fluorescence intensity (a.u.).

In the case of “CGTTAAAATTGAAAGTTTGATTGAAATTGGAACGATGTGACGGAGTCACCTAGTGCAG”, the binding signal was 40200 fluorescence intensity (a.u.).

Take “AGTAATCAGCACTCAATTTACCATCATTCAGAGAGGACAACGGAGTCACCTAGTGCAG”: the binding signal is 11700 fluorescence intensity (a.u.).

Regarding “TGTAAGAGTGGCAAATAGTTAATTAGTCTAAATTTTGCACCGGAGTCACCTAGTGCAG”, the binding signal was 4770 fluorescence intensity (a.u.).

Turning to “ACTTTTAGGTACCTAATTATGTTTAGTACTAATTAGCCGCCGGAGTCACCTAGTGCAG”, the binding signal was 3900 fluorescence intensity (a.u.).

On to “TAGTTCAATCAATTGAAGTCGAGCGGCTTCAGATATTCGTCGGAGTCACCTAGTGCAG”, for which the binding signal is 25300 fluorescence intensity (a.u.).

In the case of “TAAAACATAAATTTACCATTGACCTACAATTTGAAAACCTCGGAGTCACCTAGTGCAG”, the binding signal is 6720 fluorescence intensity (a.u.).

For “ATACTTAACTGTCTCTGTAGCAACACGCTCGATATCATCTCGGAGTCACCTAGTGCAG”, the binding signal is 3500 fluorescence intensity (a.u.).

Take “GTGATCGTCTCCCTTAATTAGCTTCCACTAATCTTTCCACCGGAGTCACCTAGTGCAG”: the binding signal was 8410 fluorescence intensity (a.u.).

For the sequence “TGTCTAATTGTCTCACGTTCAATTGTTGCCAACTTGCAACCGGAGTCACCTAGTGCAG”, the binding signal was 16600 fluorescence intensity (a.u.).

For the sequence “GTCACCAATCACGACTTCCCATGCACATCGTCCAACCCAGCGGAGTCACCTAGTGCAG”, the binding signal is 18900 fluorescence intensity (a.u.).

With “TAAAAGTAATTATGGCCATTTGCAGAAGCGGAAGGTGGAGCGGAGTCACCTAGTGCAG”, the binding signal is 4970 fluorescence intensity (a.u.).

Take “TTAATTAATTAATTTTCTTCCTAAACATATCCGCTAATCCCGGAGTCACCTAGTGCAG”: the binding signal was 53500 fluorescence intensity (a.u.).

For the sequence “ACTGACTGTCACTCTCAGAGCTTGTTCTCCCACTATCTATCGGAGTCACCTAGTGCAG”, the binding signal is 8950 fluorescence intensity (a.u.).

For “ACACTAATTTCAAGGTTGCTCGTGAGTCATAATCCTGACGCGGAGTCACCTAGTGCAG”, the binding signal is 11500 fluorescence intensity (a.u.).

On to “CTTGAGATGATTAGACTCCTAATGTAGCTCATGATTATATCGGAGTCACCTAGTGCAG”, for which the binding signal was 14400 fluorescence intensity (a.u.).

Consider “TAATGTGTGATTCCTCTAATTAAAAGAACTTCCAACTTATCGGAGTCACCTAGTGCAG”, for which the binding signal was 5600 fluorescence intensity (a.u.).

With “AGCTTCCATTTGAAGTTAATTACGGTGATTAGCTTGAGGCCGGAGTCACCTAGTGCAG”, the binding signal is 23700 fluorescence intensity (a.u.).

On to “TGCTAATTTTATCCCGTGACTATCGTGCAGTAACGGAATTCGGAGTCACCTAGTGCAG”, for which the binding signal is 16800 fluorescence intensity (a.u.).

For the sequence “GCCTCCTATTAAATGGCAATTGTTTTGCCTGCGTGCGGGCCGGAGTCACCTAGTGCAG”, the binding signal is 3170 fluorescence intensity (a.u.).

On to “ATTTCTAATCAATTCGGGAAGGGAAGGATAAAATTGTTTTCGGAGTCACCTAGTGCAG”, for which the binding signal was 6320 fluorescence intensity (a.u.).

As for “CTGCTGTAAATTTGTTGGTTACTGACTTACTGCGTACACTCGGAGTCACCTAGTGCAG”, the binding signal was 9160 fluorescence intensity (a.u.).

For “ACTTAAATTAGCAGCAGTTACTACCACCTGCTTCGCAACCCGGAGTCACCTAGTGCAG”, the binding signal was 24900 fluorescence intensity (a.u.).

On to “CGTCCTTCCGATATTGATTGTTTAAGTCGGTTGATTCGGACGGAGTCACCTAGTGCAG”, for which the binding signal was 6600 fluorescence intensity (a.u.).

For the sequence “ACCCATGATTGCTAGTGCTACTCGCGACAAGGGTTTGTAGCGGAGTCACCTAGTGCAG”, the binding signal is 33600 fluorescence intensity (a.u.).
